Reference: PubChem BioAssay AID1508624 (National Center for Advancing Translational Sciences (NCATS), 2021)
The whole screen tested about 48,000 compounds, of which about 120 (0.25%) were called active. About 4% were inconclusive and are not listed. Calls come from the whole dose curve; as a rule, active = well fitted activation curve with a large enough effect; inconclusive = small, poorly fitted or top-dose-only effect, or another doubt; inactive = no such curve, though single readings can be large or run the other way. The list shows a part of the results.

Experiment: Primary qHTS for Identification of Small Molecule Activators of Huntingtin-Antisense Promoter Activity; note: nearly all actives have a fitted effect of over 55% in size
Settings: HEK293 HTT-AS promoter firefly luciferase reporter (activity 0% = vehicle and -100% = no light), 24 h; series mostly up to 57.5 µM; activity change, positive = activation: at the top concentration
Method in brief: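 Firefly luciferase signal from promoter-reporter HEK293 cells was scaled between vehicle (0%) and zero RLU (-100%). Compounds were tested at final concentrations of up to 57.5 uM over 24 h at 37 degrees C. PTC124 at 50 uM final served as control inhibitor.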

Activity change, positive = activation, inactive:
Clc1cccc(-c2nnnn2Cc2cccnc2)c1Cl -10.5%
O=C(NCCCN1CCN(c2ccccc2F)CC1)c1ccc2nc(CCc3ccccc3)oc2c1 -19.7%
CCOc1ccc(C(=O)Nc2ccc(OCc3cc(=O)n4cccc(C)c4n3)cc2)cc1 -14.8%
CCc1nnc2c3ccccc3nc(Nc3cc(C)cc(C)c3)n12 -19.4%
COc1ccc(S(=O)(=O)NCc2cccn2Cc2cc(C)ccc2C)cc1OC -11.9%
Cc1nc2ccccc2n1Cc1ccc(Cl)cc1 -76.9%
CC(=O)NCCNC(=O)CCCc1nnc2n(CC(C)C)c(=O)c3sccc3n12 -16.4%
COc1ccc(-c2cc(-c3nc(-c4cc(OC)c(OC)c(OC)c4)no3)[nH]n2)c(OC)c1 -21.5%
COc1cccc(NC(=O)Cn2c(=O)n(Cc3ccc(F)cc3)c(=O)c3sc4ccccc4c32)c1 -15.7%
OCCCNc1cc(-c2ccnc(Nc3cccc(Cl)c3)n2)ccn1 -17.7%
COc1ccc(CNC(=O)CCc2c(C)nc3cc(-c4ccc(OC)cc4OC)nn3c2C)cc1 -36.8%
Cc1cccc(NC(=O)Cn2c(=O)n(CC3CCC(C(=O)NCCc4ccccc4)CC3)c(=O)c3ccccc32)c1 (stereo unspecified) -12.9%
Fc1ccc(Nc2nc(-c3cccc(Cl)c3)c3c(n2)-c2ccccc2OC3)c(F)c1 -18.4%
Fc1ccc(-c2cc(-c3ccc(F)cc3)c3c(n2)-c2cc(F)ccc2OC3)cc1 -16.9%
CC(C)=CCNc1ncnc2c1ncn2[C@@H]1O[C@H](CO)[C@@H](O)[C@H]1O -43.6%
CCOc1ccc2nc(N3CCCC(C(=O)Nc4ccccc4CC)C3)sc2c1 (stereo unspecified) 27.1%
CCc1ccc(NC(=O)CSc2nc(-c3ccc(C)cc3)nc3c2Cc2c(CO)cnc(C)c2O3)cc1 -18.2%
CCOC(=O)c1cc(-c2ccc(F)cc2)n(CCC(=O)NC2CCC(C)CC2)c1C (stereo unspecified) -34.2%
COc1cccc(-c2ccc(NC(=O)C3=C(C(=O)O)CCC3)c(F)c2)c1 14.3%
CCc1ccc(NC(=O)c2cc(S(=O)(=O)NC3CCCCCC3)ccc2F)cc1 -47.1%
Cc1nn(-c2ccccc2)c2c1N(CCCC(=O)NC(C)c1ccccc1)C(=O)CS2 (stereo unspecified) -17.2%
Cc1nn(-c2ccccc2)c2c1N(CC(=O)N1CCN(c3ccc(Cl)cc3)CC1)C(=O)CS2 -14.4%
CCc1ccc(CNC(=O)CCn2nc(C)c3c(C)n(-c4ccccc4)nc3c2=O)cc1 3.93%
Cc1ccc(S(=O)(=O)c2cn(Cc3ccccc3)c3cc(N4CCOCC4)c(F)cc3c2=O)cc1 -25.1%
COc1cc(NC(=O)c2noc3c2CC(C)CC3)c(OC)cc1Cl (stereo unspecified) -9.36%
O=c1[nH]c(=O)n([C@H]2C[C@@H](O)[C@@H](CO)O2)cc1I -10%
CC1CCC(NC(=O)c2ccc(CSc3nc4ccncc4n3Cc3ccc(F)cc3)cc2)CC1 (stereo unspecified) -15.7%
COc1ccc(-n2c(SCCC(C)C)nc3sc4c(c3c2=O)CC(C(C)C)OC4)cc1 (stereo unspecified) -1.76%
Cc1nn(CCCC(=O)Nc2ccccc2C(F)(F)F)c(=O)c2nn(-c3ccccc3)c(C)c12 -4.92%
Cc1nn2c(-c3ccccc3)cc(-c3ccccc3)nc2c1-c1ccc(Cl)cc1 -0.839%
Cc1cc(C)n2nc(CNC(=O)c3ccc(Cl)cc3)nc2n1 -3.76%
O=C(Nc1ccccc1)c1cccc(N2CCCS2(=O)=O)c1 7.49%
COc1ccc(C(CC(=O)Nc2ncccc2C)N2Cc3ccccc3C2=O)cc1OC (stereo unspecified) -19.3%
COc1ccc(NC(=O)[C@H](Cc2ccccc2)N2Cc3ccccc3C2=O)cc1OC -25.1%
COc1cccc(NC(=O)Cn2c(=O)n(Cc3ccc4c(c3)OCO4)c(=O)c3oc4ccccc4c32)c1 -11.6%
Cc1ccc(-n2ncc(C(=O)NCCN3CCN(C)CC3)c2C2CCN(C(=O)OC(C)(C)C)CC2)cc1C -5.74%
CC(=O)c1cccc(NS(=O)(=O)c2c(C(=O)N3CCCCCC3)c(C)n(C)c2C)c1 -7.73%
COc1ccc2c(c1)c(N1CCCC1=O)c(C(=O)Nc1ccc(OC)c(Cl)c1)n2C -35.3%
CCOc1ccc(CNC(=O)Cn2c(=O)c3cccn3c3cccnc32)cc1 -8.04%
COc1ccccc1Nc1nc(C)nc(N)c1S(=O)(=O)c1ccccc1 -8.63%
CN(C)CCN(Cc1cccs1)c1ccccn1 -4.94%
Cc1nc2c3cccnc3nn2c(C)c1CCC(=O)NCc1ccccc1 -20.2%
Cc1ccc(C)c(NC(=O)c2cc(S(=O)(=O)NCc3ccccc3)ccc2F)c1 -15.7%
CCN(CC)S(=O)(=O)c1ccc2c(c1)nc(CN(C)C(=O)Nc1ccc(C)c(Cl)c1)n2C -23%
COc1ccc(Nc2ncc(C(=O)Nc3cccc(Cl)c3)c3ccccc23)cc1 -10.9%
CCc1ccc(NC(=O)C(=O)NCC(c2ccc3c(c2)OCO3)N2CCN(C)CC2)cc1 (stereo unspecified) -16.5%
Cc1ccc(OCC(=O)NCC2(N3CCN(C)CC3)CCCCC2)cc1 -11.6%
CC(C)CCNC(=O)c1cnc2sc(N3CCCCCC3)nn2c1=O -15.9%
COc1ccc(CNC(=O)c2ccc(Cn3c(=O)c4cccn4c4cccnc43)cc2)c(OC)c1 -15.3%
Cc1ccc(O)c(NC(=O)c2cc(-c3ccc(F)cc3)no2)c1 25%
COc1ccc(-n2nc3c(N4CCC(C(=O)N5CCC(C)CC5)CC4)nnc(C)c3c2C)cc1 -14.8%
CC(=O)NCC(=O)N1[C@H]2CC[C@H]1c1cc(Nc3ncc(C(F)(F)F)c(NC4CCC4)n3)ccc12 -38.8%
COc1cccc(-c2nc(CS(=O)(=O)CC(=O)N3CCN(c4ccccc4)CC3)c(C)o2)c1 -26.1%
Cc1ccc(Cl)cc1N1CCN(C(=O)c2ccc3c(Cl)c4c(nc3c2)CCCC4)CC1 -17.5%
O=C(Cn1c(=O)ccc2cc(S(=O)(=O)N3CCCC3)ccc21)Nc1ccccc1 -17.1%
CCN1CCN(CCCNC(=O)Cn2c(-c3cccs3)cc3cc(Cl)ccc32)CC1 -25.1%
COc1ccc(-c2nc(CNC(=O)Nc3ccccc3)c(C)o2)c(OC)c1 -2.96%
CCn1ccc2c(OCC(=O)Nc3ccc(OC)cc3OC)cccc2c1=O -35.7%
O=c1ccc(-c2ccccc2)nn1Cc1c(F)cccc1Cl -19.3%
CCn1cc(C(=O)NCCC(C)C)c(=O)c2cc(S(=O)(=O)N(C)C3CCCCC3)ccc21 -4.54%
CCC(=O)N1c2ccccc2CC1C(=O)NCCCN1CCN(c2ccc(OC)cc2)CC1 (stereo unspecified) -3.4%
